Measurements: the supplement of paper PMC11876631
± gives the standard deviation of the averaged measurements. Laboratory Escherichia coli strains with one amino-acid change in an essential protein, pooled on minimal glucose agar with carbenicillin or gentamicin at twice the control MIC (plus kanamycin and chloramphenicol for the plasmids), 48 h. Fold change of barcode share against drug-free plates; higher = less susceptible. Active = above 20 in both replicates (the paper's putatively resistant). '<' = one read or none on drug, '>' = one read or none on a drug-free plate. Shares are relative, so most strains fall below 1 when a few take over. Listed are strains with at least 15 reads on both drug-free plates, and hits; most hits rest on fewer reference reads. Replicate rank correlation about 0.5. Edits are read from barcodes.

B1: nadB; numbered along this chain (parent)
chain: MNTLPEHSCDVLIIGSGAAGLSLALRLADQHQVIVLSKGPVTEGSTFYAQGGIAAVFDETDSIDSHVEDTLIAGAGICDRHAVEFVASNARSCVQWLIDQGVLFDTHIQPNGEESYHLTREGGHSHRRILHAADATGREVETTLVSKALNHPNIRVLERSNAVDLIVSDKIGLPGTRRVVGAWVWNRNKETVETCHAKAVVLATGGASKVYQYTTNPDISSGDGIAMAWRAGCRVANLEFNQFHPTALYHPQARNFLLTEALRGEGAYLKRPDGTRFMPDFDERGELAPRDIVARAIDHEMKRLGADCMFLDISHKPADFIRQHFPMIYEKLLGLGIDLTQEPVPIVPAAHYTCGGVMVDDHGRTDVEGLYAIGEVSYTGLHGANRMASNSLLECLVYGWSAAEDITRRMPYAHDISTLPPWDESRVENPDERVVIQHNWHELRLFMWDYVGIVRTTKRLERALRRITMLQQEIDEYYAHFRVSNNLLELRNLVQVAELIVRCAMMRKESRGLHFTLDYPELLTHSGPSILSPGNHYINR
B2: serS; numbered along this chain (parent)
chain: MLDPNLLRNEPDAVAEKLARRGFKLDVDKLGALEERRKVLQVKTENLQAERNSRSKSIGQAKARGEDIEPLRLEVNKLGEELDAAKAELDALQAEIRDIALTIPNLPADEVPVGKDENDNVEVSRWGTPREFDFEVRDHVTLGEMHSGLDFAAAVKLTGSRFVVMKGQIARMHRALSQFMLDLHTEQHGYSENYVPYLVNQDTLYGTGQLPKFAGDLFHTRPLEEEADTSNYALIPTAEVPLTNLVRGEIIDEDDLPIKMTAHTPCFRSEAGSYGRDTRGLIRMHQFDKVEMVQIVRPEDSMAALEEMTGHAEKVLQLLGLPYRKIILCTGDMGFGACKTYDLEVWIPAQNTYREISSCSNVWDFQARRMQARCRSKSDKKTRLVHTLNGSGLAVGRTLVAVMENYQQADGRIEVPEVLRPYMNGLEYIG
B3: pabA; numbered along this chain (parent)
chain: MILLIDNYDSFTWNLYQYFCELGADVLVKRNDALTLADIDALKPQKIVISPGPCTPDEAGISLDVIRHYAGRLPILGVCLGHQAMAQAFGGKVVRAAKVMHGKTSPITHNGEGVFRGLANPLTVTRYHSLVVEPDSLPACFDVTAWSETREIMGIRHRQWDLEGVQFHPESILSEQGHQLLANFLHR

Variants of: B1
Experiment: barcode share on antibiotic plates over drug-free plates; higher = less susceptible
Details: with Escherichia coli (laboratory strain); antibiotic: carbenicillin; 2× MIC (3.1 µg/mL)
Experimental: (§1)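 A pool of E. coli strains, each edited to carry one amino-acid change in an essential protein, was grown for 48 h on minimal glucose agar with or without antibiotic; strain barcodes were sequenced; mean of two replicates.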

Variant	fold change of barcode share
V184D	1.92 ± 1.4
V184Q	0.5641 ± 0.0024
V184W	0.463 ± 0.11
L396A	0.723 ± 0.12
L396D	2.56 ± 0.51
L396P	2.12 ± 0.1
L396Q	0.83 ± 0.037
L396W	1.18 ± 0.27
V397A	0.945 ± 0.014
V397D	3.4 ± 0.8
V397P	5.89 ± 0.43
V397Q	9.29 ± 4.1
V397W	5.65 ± 0.24
I500A	0.615 ± 0.14
I500Q	0.662 ± 0.14
V501A	0.841 ± 0.17

Same assay, conditions: with Escherichia coli (laboratory strain); antibiotic: gentamicin; 2× MIC (MIC 0.45 µg/mL)

Variant	fold change of barcode share
V184D	0.107 ± 0.14
V184Q	0.0292 ± 0.021
V184W	0.0287 ± 0.037
L396D	0.184 ± 0.035
L396Q	0.0298 ± 0.016
V397A	0.764 ± 0.17
V397D	0.258 ± 0.33
V397P	0.316 ± 0.35
V397Q	0.542 ± 0.58
V397W	0.371 ± 0.35
I500A	0.0556 ± 0.064
I500Q	0.0497 ± 0.043
V501A	0.0242 ± 0.023
V184A	< 0.0187
V184P	0.0461 ± 0.013

Variants of: B2
Experiment: as above
Details: with Escherichia coli (laboratory strain); antibiotic: carbenicillin; 2× MIC (3.1 µg/mL)
Experimental: as §1

Variant	fold change of barcode share
V385P	0.329 ± 0.013
W346Q	0.472 ± 0.071
M165Q	0.408 ± 0.26
L318P	0.614 ± 0.2
V385Q	0.627 ± 0.34
L181Q	0.283 ± 0.047
V164A	0.664 ± 0.11
L319A	0.361 ± 0.12
V164Q	0.351 ± 0.16
L318D	0.236 ± 0.087
V385A	0.143 ± 0.05
W346A	0.301 ± 0.056
L319Q	1.83 ± 0.58
V385W	0.414 ± 0.4
M165A	0.246 ± 0.11
I282W	0.4015 ± 0.0022
L318W	0.323 ± 0.11
L318A	0.257 ± 0.039
I235A	0.493 ± 0.035
L318Q	0.748 ± 0.45

Same assay, conditions: with Escherichia coli (laboratory strain); antibiotic: gentamicin; 2× MIC (MIC 0.45 µg/mL)

Variant	fold change of barcode share
V385P	< 0.00993
M165Q	< 0.00462
L318P	< 0.0127
L181Q	0.694 ± 0.97
V164A	0.0038 ± 0.0022
L319A	0.0253 ± 0.026
V164Q	0.27 ± 0.37
L318D	0.015 ± 0.0073
V385A	< 0.0146
L319Q	< 0.0132
M165A	< 0.00357
L318W	< 0.00975
L318A	< 0.00781
I235A	0.0064 ± 0.0019
L318Q	< 0.0138

Variants of: B3
Experiment: as above
Details: with Escherichia coli (laboratory strain); antibiotic: carbenicillin; 2× MIC (3.1 µg/mL)
Experimental: as §1

Variant	fold change of barcode share
L4A	1.04 ± 0.26
L4P	0.64 ± 0.025
L4Q	0.494 ± 0.14
L4W	0.856 ± 0.23
I5A	0.543 ± 0.11
I5D	1.2 ± 1.1
I5P	0.866 ± 0.16
I5Q	1.22 ± 0.6
I5W	0.418 ± 0.11
L76A	0.552 ± 0.096
L76D	0.67 ± 0.33
L76P	0.574 ± 0.077
L76Q	0.567 ± 0.048
L76W	0.58 ± 0.2
F115A	0.816 ± 0.15
F115D	1.14 ± 0.43
F115P	0.86 ± 0.33
F115Q	0.763 ± 0.051
F115W	0.554 ± 0.097
L118A	3.22 ± 1.3
L118D	1.57 ± 0.83
L118P	1.77 ± 0.8
L118Q	0.75 ± 0.47

Same assay, conditions: with Escherichia coli (laboratory strain); antibiotic: gentamicin; 2× MIC (MIC 0.45 µg/mL)

Variant	fold change of barcode share
L4A	0.0267 ± 0.026
L4P	< 0.0115
L4Q	0.0154 ± 0.011
L4W	0.0382 ± 0.015
I5A	0.0241 ± 0.022
I5P	0.0391 ± 0.018
I5Q	0.0306 ± 0.012
I5W	0.0266 ± 0.025
L76A	0.0189 ± 0.00029
L76D	0.0217 ± 0.011
L76P	0.0169 ± 0.0088
L76Q	0.00832 ± 0.0074
L76W	0.0175 ± 0.014
F115A	0.0207 ± 0.0078
F115D	0.0238 ± 0.015
F115P	0.0249 ± 0.0047
F115Q	0.0178 ± 0.0086
F115W	0.0061 ± 0.00045
L118A	< 0.00692
L118D	< 0.0146
L118P	0.0159 ± 0.0059
L118Q	< 0.00595
